# Reference: PubChem BioAssay AID624417 (National Center for Advancing Translational Sciences (NCATS), 2012)
# Hit rate of the full screen: of about 410,000 compounds, about 6,400 (1.6%) were called active. This list was built around the results that the source calls inconclusive (neither active nor inactive); the mix of calls is not that of the screen. Calls follow the shape of the dose curve; as a rule, active = well fitted inhibition curve with a large enough effect; inconclusive = small, poorly fitted or top-dose-only effect; inactive = no such curve, though single readings can be large or run the other way. No potency is given beside an inconclusive call; the fits are too rough.
# Biological target: Glucagon-like peptide 1 receptor (Homo sapiens) (UniProt P43220)
# Experiment: qHTS of GLP-1 Receptor Inverse Agonists (Inhibition Mode); also: nearly all actives have a fitted effect of over 55% in size
# Conditions: HEK293 GLP-1R CRE-luciferase, luminescence, 24 h, GLP-1R form is constitutively active; activity change, negative = inhibition: at 38.3 µM (top of the series) unless noted
# Outline: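 Inverse agonists were sought by their lowering of basal cAMP reporter luciferase output in HEK293 cells stably carrying constitutively active human GLP-1R, after 24 h compound treatment.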
# % is scaled to controls: 0 for no effect and ±100 for the full control effect; potency is read from the fitted curve at half-maximal effect; tags tell the direction and shape of the fitted curve.
# UniProt P43220, sequence (P43220 whole entry, looked up): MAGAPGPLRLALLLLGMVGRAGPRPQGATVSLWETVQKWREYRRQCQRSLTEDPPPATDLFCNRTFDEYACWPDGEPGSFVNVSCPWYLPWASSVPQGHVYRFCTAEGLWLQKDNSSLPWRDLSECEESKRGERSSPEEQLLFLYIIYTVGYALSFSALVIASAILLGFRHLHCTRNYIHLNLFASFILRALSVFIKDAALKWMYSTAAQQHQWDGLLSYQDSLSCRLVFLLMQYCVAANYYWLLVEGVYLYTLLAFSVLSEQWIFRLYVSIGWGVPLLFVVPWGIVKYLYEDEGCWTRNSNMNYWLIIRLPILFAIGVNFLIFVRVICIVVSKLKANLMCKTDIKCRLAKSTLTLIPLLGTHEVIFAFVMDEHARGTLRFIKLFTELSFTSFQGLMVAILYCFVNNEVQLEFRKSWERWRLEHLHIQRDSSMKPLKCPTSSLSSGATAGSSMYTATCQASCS
Structure (SMILES),Potency,"activity change, negative = inhibition"
Cc1cccc(NC(=S)Nc2ccccn2)c1,active: 11.2 µM,
Cc1ccc(NC(=O)/C=C/c2ccc3c(c2)OCO3)nc1,"inconclusive [inhibitor, full curve, poor fit]",
O=c1[nH]c(C2CCN(S(=O)(=O)c3ccc(S(=O)(=O)NC4CC4)cc3)CC2)nc2c1nnn2Cc1cccc(F)c1,"inconclusive [inhibitor, single point]",
COc1ccc(-c2cc(C(F)(F)F)nc(S(=O)(=O)CCCC(=O)Nc3cccnc3Cl)n2)cc1OC,"inconclusive [inhibitor, single point]",
OCCNc1ncnc2ccc(Br)cc12,"inconclusive [inhibitor, partial curve]",
CN(C1CCCCC1)S(=O)(=O)c1ccc(SCC(=O)C(C)(C)C)nc1,"inconclusive [inhibitor, partial curve, poor fit]",
Cc1cccc(NC(=O)c2ccccc2NC(=O)c2ccco2)c1,"inconclusive [inhibitor, single point]",
CCOc1ccc(S(=O)(=O)N2CCN(CCNS(=O)(=O)c3ccc(C)cc3)CC2)cc1,"inconclusive [inhibitor, single point]",
C(=N\Nc1ccc2ccccc2n1)/c1ccc2c(c1)OCO2,"inconclusive [inhibitor, partial curve, poor fit]",
O=C(CC1SC(=Nc2ccc(OC(F)F)cc2)N(CCC2=CCCCC2)C1=O)Nc1ccccc1F (stereo not given),"inconclusive [inhibitor, partial curve, poor fit]",
Cn1c(NCc2ccccc2)nc2c1c(=O)n(Cc1ccc(Br)cc1)c(=O)n2C,"inconclusive [inhibitor, partial curve, poor fit]",
COc1cccc(NC(=O)C2(C)CCN2Cc2ccc(OC)c3ccccc23)c1 (stereo not given),"inconclusive [inhibitor, single point]",
O=P(COCCCCCOCP(=O)(c1ccccc1)c1ccccc1)(c1ccccc1)c1ccccc1,"inconclusive [inhibitor, single point]",
CC(Oc1ccccc1Cl)C(=O)N1CCCN(C)CC1 (stereo not given),"inconclusive [inhibitor, partial curve, poor fit]",
COc1ccc(CC(=O)NCC(c2cccs2)S(=O)(=O)c2ccc(C)cc2)cc1 (stereo not given),,inactive: 10.9%
Cc1cc(NC(=O)CSc2nnc(-c3cccc(Cl)c3)o2)no1,,inactive: -25%
COc1cc(OC)cc(C(=O)N[C@H](C(=O)NC2CCCc3ccccc32)C(C)C)c1 (stereo not given in full),"inconclusive [inhibitor, partial curve, poor fit]",
CC1CCCN(C(=O)CN(c2ccccc2)S(=O)(=O)c2ccc(F)cc2)C1 (stereo not given),"inconclusive [inhibitor, single point]",
COc1ccc(C2SCC(=O)N2CCc2ccc(OC)c(OC)c2)cc1 (stereo not given),"inconclusive [inhibitor, single point]",
CCOc1ccc(OCCC(=O)Nc2ccc(F)cc2C)cc1,"inconclusive [inhibitor, single point]",

Structure (SMILES),Potency,"activity change, negative = inhibition"
CC1OC(CC(=O)O)CC2=C1C(=O)c1c(O)cccc1C2=O (stereo not given),"inconclusive [inhibitor, full curve, poor fit]",
COc1ccc(NC(=O)C2CCCN(S(=O)(=O)c3ccc(Br)s3)C2)cc1 (stereo not given),,inactive: -8.18%
CCCc1cc(C(=O)N/N=C/c2ccc(CC)s2)c2ccccc2n1,"inconclusive [inhibitor, partial curve, poor fit]",
CCn1nnc2cc(C(=O)NCCc3ccccc3F)ccc21,"inconclusive [inhibitor, partial curve, poor fit]",
Cc1ccc(C(CC(=O)O)Nc2nc(N3CCCCC3)nc(N3CCCCC3)n2)cc1 (stereo not given),"inconclusive [inhibitor, partial curve, poor fit]",
CCO[C@H]1OC(C(=O)N2CCN(Cc3ccc4c(c3)OCO4)CC2)=C[C@@H](c2ccc(Br)cc2)[C@@H]1CCCO,"inconclusive [inhibitor, partial curve, poor fit]",
CN(C)S(=O)(=O)N(CC(=O)Nc1cccc(F)c1)c1ccccc1,,inactive: 0%
COc1cc(C(=O)n2nc(C)c(Sc3ccc(Cl)cc3)c2C)cc(OC)c1OC,"inconclusive [inhibitor, single point]",
COc1ccccc1N1CCN(CC(=O)Nc2ccc(CN3CCCCC3)cc2)CC1,"inconclusive [inhibitor, partial curve, poor fit]",
Cc1ccc(S(=O)(=O)N2CCN(C(=O)C(O)c3ccccc3)CC2)cc1 (stereo not given),,inactive: 9.5%
O=C(CSc1ccccn1)N/N=C/c1cc([N+](=O)[O-])ccc1O,"inconclusive [inhibitor, single point]",
CCOC(=O)c1c(-c2ccc(C)cc2)csc1NC(=O)c1cc(=O)c2ccc(C)cc2o1,,inactive: 3.89%
COc1ccc(-n2c(=S)[nH]c3cc(C(=O)Nc4ccc(C)c(F)c4)ccc3c2=O)c(OC)c1,active: 7.08 µM,
COC(=O)c1c(NC(=O)CCNCc2ccco2)sc2c1CCC2,"inconclusive [inhibitor, single point]",
CCC(CC)C(=O)Nc1nnc(S(=O)(=O)Nc2ccc(OC)cc2)s1,"inconclusive [inhibitor, partial curve, poor fit]",
CCC(=O)Nc1nc2ccccc2n1CCN(C)C,,inactive: -24.9%
O=[N+]([O-])c1ccc(OC/C=C2\Oc3ccc([N+](=O)[O-])cc3C2N2CCOCC2)cc1 (stereo not given),"inconclusive [inhibitor, single point]",
COc1ccc(CCN2CCCC(CN(C)Cc3cccc(OC)c3)C2)cc1 (stereo not given),"inconclusive [inhibitor, partial curve, poor fit]",
Cc1cccc(CCNC(=O)c2cccc(N3CCCC3=O)c2)c1,"inconclusive [inhibitor, single point]",
CCOC(=O)C1=C(c2ccccc2)NC(N)=NC1c1ccc(OCc2ccc(Cl)cc2)c(OC)c1 (stereo not given),"inconclusive [inhibitor, single point]",
